# Experimental data from PMC4336329 (PLoS ONE, 2015).
# The whole screen tested about 310,000 compounds, of which about 14,000 (4.5%) showed an effect of 50% or more. Effects have a minus sign here. This is one part of the list.
# Target: human ether-à-go-go-related gene (hERG) potassium channel (human, UniProt Q12809)
# Test: primary screen, population patch clamp on CHO cells stably expressing hERG
# 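Also: peak tail current of the secondary pulse compared with the same well before compound.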
# human ether-à-go-go-related gene (hERG) potassium channel, sequence (Q12809 whole entry, looked up): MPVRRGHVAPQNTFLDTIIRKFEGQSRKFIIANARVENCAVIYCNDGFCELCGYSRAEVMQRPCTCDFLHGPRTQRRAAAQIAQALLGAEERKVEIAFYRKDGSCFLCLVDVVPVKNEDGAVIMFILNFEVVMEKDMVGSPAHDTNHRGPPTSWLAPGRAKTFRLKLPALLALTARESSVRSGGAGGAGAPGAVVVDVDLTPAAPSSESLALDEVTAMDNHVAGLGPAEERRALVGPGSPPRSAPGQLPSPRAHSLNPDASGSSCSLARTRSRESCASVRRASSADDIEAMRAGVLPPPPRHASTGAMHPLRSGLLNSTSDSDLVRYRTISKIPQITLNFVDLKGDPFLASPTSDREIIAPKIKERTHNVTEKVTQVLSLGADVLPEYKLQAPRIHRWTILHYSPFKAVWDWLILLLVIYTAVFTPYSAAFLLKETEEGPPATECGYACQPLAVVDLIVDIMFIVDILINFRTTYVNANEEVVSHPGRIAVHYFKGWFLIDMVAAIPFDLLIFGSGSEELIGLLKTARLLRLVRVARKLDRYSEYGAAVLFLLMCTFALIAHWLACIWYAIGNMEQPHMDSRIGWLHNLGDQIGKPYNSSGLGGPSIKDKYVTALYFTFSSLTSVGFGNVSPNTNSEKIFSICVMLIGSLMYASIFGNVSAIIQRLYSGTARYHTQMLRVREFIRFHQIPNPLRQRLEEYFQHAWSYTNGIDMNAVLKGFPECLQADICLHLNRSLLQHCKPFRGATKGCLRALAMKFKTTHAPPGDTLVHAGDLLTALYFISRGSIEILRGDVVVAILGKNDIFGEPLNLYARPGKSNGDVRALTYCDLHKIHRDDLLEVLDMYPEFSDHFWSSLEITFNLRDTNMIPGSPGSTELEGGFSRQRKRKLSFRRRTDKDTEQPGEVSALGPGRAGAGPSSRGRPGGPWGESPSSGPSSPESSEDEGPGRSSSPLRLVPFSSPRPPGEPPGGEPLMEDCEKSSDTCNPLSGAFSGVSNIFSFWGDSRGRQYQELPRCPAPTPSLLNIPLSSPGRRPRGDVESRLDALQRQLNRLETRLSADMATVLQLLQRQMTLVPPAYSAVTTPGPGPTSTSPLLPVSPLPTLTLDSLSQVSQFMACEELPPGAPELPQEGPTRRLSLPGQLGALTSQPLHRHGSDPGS
row,Structure (SMILES),"hERG current change (%, negative = inhibition) at 10uM [%]"
1,O=C(NCc1cc(F)cc(C(F)(F)F)c1)C1CCC(=O)N(C2CCCC2)C1 (stereo not shown),-14.8
2,Cc1nn(-c2ccc(F)cc2)c(C)c1CN1CCN(CCC(C)C)C(CCO)C1 (stereo not shown),-36.3
3,Cc1ccc(NC2=NCC(Cc3ccc(Br)cc3)S2)cc1 (stereo not shown),6.97
4,COC(=O)CNC(=O)COC(=O)C(Cc1ccccc1)NC(=O)c1ccco1 (stereo not shown),17.9
5,COc1ccc(CNC(=O)CCCC(=O)n2nc(C)c3ccccc32)cc1,3.27
6,CC(C)Cc1nc2sc3c(=O)n(N)cnc3c2c2c1COC(C)(C)C2,4.29
7,C/C(CC(=O)N1CCN(C=O)CC1)=N\NC(=O)c1cccc([N+](=O)[O-])c1,24.1
8,CCOC(=O)c1ccc(NC(=O)c2sc3nc4n(c(=O)c3c2C)CCC4)cc1,8.82
9,O=C(Nc1ccccc1)C(O)C(O)C(=O)Nc1ccccc1 (stereo not shown),16.8
10,Cc1sc(-c2ccncc2)nc1OC(=O)c1ccccc1,-0.792
11,O=C(Nc1ccc(S(=O)(=O)N2CCOCC2)cc1)c1ccc2c(c1)S(=O)(=O)c1ccccc1C2=O,18.7
12,Cc1cc(Nc2nc(Cl)c(Cl)cc2Cl)n(-c2ccccc2)n1,11.7
13,O=C(CSc1nnc(Cc2ccccc2)o1)Nc1cccc(F)c1,-11.8
14,CC(=O)Cn1ncc(N2CCOCC2)c(Cl)c1=O,4.26
15,COc1cccc(Nc2ncnc3sc(C)cc23)c1.Cl,-8.64
16,COP(=O)(OC)Oc1ccc(C(O)C(Cl)(Cl)Cl)cc1 (stereo not shown),15.1
17,COc1ccccc1NC(=O)N(Cc1ccco1)Cc1cc2cccc(C)c2[nH]c1=O,-18
18,CCc1[nH]nc2c1C(c1cccc(OC(=O)N3CCOCC3)c1)C(C#N)=C(N)O2 (stereo not shown),12.5
19,CCOC(=O)[C@@H]1[C@H]2COc3ccccc3[C@H]2N2C(=O)N(c3ccc(C(F)(F)F)cc3)C(=O)[C@]12C,14.5
20,CC(=O)N1N=C(c2ccc(NS(C)(=O)=O)cc2)CC1c1ccc2nccnc2c1 (stereo not shown),-63.2
21,Cc1ccc(C(=O)NC(NC(=O)c2ccc(C)cc2)C(Cl)Cl)cc1,7.41
22,CCCC(O)(CCC)C(=O)NNc1ccccc1,12.4

row,Structure (SMILES),"hERG current change (%, negative = inhibition) at 10uM [%]"
1,O=C(CN1N=C(c2ccccc2)CCC1=O)NCc1cccs1,13.9
2,Nc1nc(N2CCCCC2)nc(N2CCCCC2)n1,-78.2
3,CCCn1c(=S)[nH]c2cc(C(=O)N3CCN(C4CCCCC4)CC3)ccc2c1=O,-9.29
4,COC(=O)CCC(=O)N1CCCC(CO)(Cc2ccccc2F)C1 (stereo not shown),6.35
5,Cc1ccc(NC(=O)CCC(=O)Nc2nnc(C3CCCCC3)s2)cc1,18.4
6,O=C(NCC1CCCO1)/C(=C\c1cccc([N+](=O)[O-])c1)NC(=O)c1ccccc1 (stereo not shown),-33
7,CCCNC(=O)c1onc(CS(=O)(=O)c2cccc(OC)c2)c1C(=O)NCCC,-12.5
8,CC(=O)n1cc(Nc2ccccc2C(=O)O)c2ccccc21,12.3
9,O=C(NC(=S)Nc1ccc(N2CCOCC2)c(Cl)c1)c1cccs1,19.8
10,Br.COc1ccc(C2=CSC3=NCCN23)cc1Br,-50.7
11,CC(=O)Nc1ccc(NC(=O)/C(Cl)=C/c2ccccc2)cc1,2.65
12,COc1ccccc1C1CC(c2ccccc2)=NN1S(=O)(=O)c1ccccc1 (stereo not shown),12
13,Cc1cc(C)c2c(-n3cccc3)nn(CC#N)c2n1,11.9
14,CC1CCC(NC(=O)Nc2cccs2)CC1 (stereo not shown),26.1
15,O=C(C1CCCN(S(=O)(=O)c2cc(Cl)ccc2Cl)C1)N1CCOCC1 (stereo not shown),-33.2
16,COc1ccc(N)c2c1OCCC2=O,-6.63
17,Nc1nc2n(n1)C(c1cccc(Cl)c1)CC(c1ccc(F)cc1)N2 (stereo not shown),-27.3
18,CC(=O)c1cnc2nc(SCc3ccccc3)nn2c1C,0.852
19,O=C(CN1C(=O)COc2ccc(Cl)cc21)Nc1ccc(N2CCOCC2)cc1,0.968
20,Cc1ccc(S(=O)(=O)Nc2ccc3c(c2)ncn3C(C)(C)C)cc1,-27.2
21,COc1cc(C(=O)NC2CCCc3ccccc32)cc(OC)c1OC (stereo not shown),4.25
22,CC1=CC(C)(C)N2C(=O)C3(C(C#N)=C(N)Oc4cc(C)oc(=O)c43)c3cccc1c32 (stereo not shown),0.638

row,Structure (SMILES),"hERG current change (%, negative = inhibition) at 10uM [%]"
1,COc1cccc(C2C3=C(N=C4SCC(=O)N42)c2ccccc2CC3)c1OC (stereo not shown),-5.79
2,O=C(NC1CCC(O)CC1)c1ccccc1OCc1ccc(F)cc1 (stereo not shown),-3.52
3,CCSCc1nnc(SCC(=O)Nc2cc(F)ccc2C)n1C,5.33
4,CCOc1ccc2nc(Nc3nc(CSc4nnnn4-c4ccccc4)cc(=O)[nH]3)nc(C)c2c1,-7.36
5,CC1(C)NC(=O)N(CCCOc2ccc3c(c2)CCC3)C1=O,-12
6,COc1ccc(S(=O)(=O)N2CCN(Cc3ccccc3[N+](=O)[O-])CC2)cc1,-15.2
7,Cc1ccc(C)c(NC(=O)c2ccccc2O)c1,9.07
8,C=C(C)C(=O)N1CC2(CC(c3cccc(NC(=O)/C=C\C)c3)=NO2)C[C@H]1C(N)=O (stereo partly shown),7.33
9,O=S(=O)(c1cccc(-c2cn3cccnc3n2)c1)N1CCCCCC1,-23.4
10,Cc1ccc(NC(=O)[C@@H]2CCCN2C(=O)[C@@H]2Cc3ccccc3CN2)c(C)c1,-7.91
11,N#Cc1nnn(-c2ccc(Cl)cc2)c1N,11.6
12,COc1ccccc1/C=C/C(=O)Nc1cccnc1Cl,21.8
13,COc1cc(/C=N/NC(=O)c2cc(-c3ccccc3C)nc3ccccc23)cc(OC)c1O,-9.98
14,O=c1[nH]c(O)c(C=Nc2cc(F)cc(F)c2)c(=O)[nH]1,10.4
15,O=C(Nc1ccc2c(c1)OCCO2)c1cccc(Br)c1,-3.1
16,O=C(Nc1ccc(F)cc1)C(=O)c1cn(CC(=O)N2CCOCC2)c2ccccc12,9.49
17,O=S(=O)(c1cccc(Cl)c1)N1CCC(c2nc3ccccc3[nH]2)CC1,2.21
18,Cc1ccc(S(=O)(=O)c2nnn3c2nc(NC2CCN(Cc4ccccc4)CC2)c2ccccc23)cc1C,4.27
19,O=C(COc1ccc2c(c1)OCO2)Nc1nnc(Cc2ccccc2)s1,38.3
20,O=C(c1ccco1)N1CCN(C(c2ccccn2)c2nnnn2C2CCCC2)CC1 (stereo not shown),-36.9
21,O=[N+]([O-])c1ccc(O)c(/C=N/n2c(CO)nc3ccccc32)c1,6.36
22,Cc1ccc(-c2nnc(SCC(=O)Nc3ccc(S(=O)(=O)N4CCCCCC4)cc3)o2)cc1,-7.29

row,Structure (SMILES),"hERG current change (%, negative = inhibition) at 10uM [%]"
1,O=C(CCCC(=O)N(CC(=O)NC1CCCCC1)Cc1ccccc1)Nc1ccccn1,-6.57
2,CCCCn1c(N)c(N(CCC(C)C)C(=O)c2ccc(COc3ccccc3)o2)c(=O)[nH]c1=O,-1.86
3,CC(OC(=O)Cc1c(F)cccc1Cl)C(=O)NC1CCCCC1C (stereo not shown),10.5
4,COc1ccc(CCC(=O)Nc2sccc2C#N)cc1,7.04
5,CC1(C)CC(=O)C=C(NCc2cccc(C(F)(F)F)c2)C1,-11.5
6,Cc1c2cnn(CC(=O)O)c(=O)c2c(C)n1Cc1ccccc1,14.8
7,Fc1ccc(C2CC(c3ccco3)n3ncnc3N2)cc1 (stereo not shown),-14.4
8,Cc1ccc(Cn2c(Sc3ncccn3)nc3c2c(=O)[nH]c(=O)n3C)cc1,-5.24
9,CCc1ccccc1NS(=O)(=O)c1ccc2[nH]cc(C(=O)NCc3ccco3)c(=O)c2c1,18.4
10,O=C(CN(CCc1ccccc1)C(=O)c1csnn1)NCc1ccc(F)cc1,-14.1
11,COc1ccc(CN2C(=O)c3cccnc3C2Nc2cc(Cl)ccc2OC)cc1 (stereo not shown),-10.6
12,COc1ccccc1NC(=O)c1nc(S(=O)(=O)Cc2ccccc2)ncc1Cl,-5.2
13,COc1cc(C(=O)N(C)CC2CCN(CCc3cccc(C(F)(F)F)c3)CC2)ccc1C,-78.8
14,CC(=O)c1ccc(-n2nncc2-c2ccc([N+](=O)[O-])cc2)cc1,-53.3
15,Cc1ccc(O)c(CCc2ccc(O)cc2)n1.Cl,-0.196
16,COc1ccc(-c2cc(C(F)(F)F)nc(SCC(=O)NCCCN3CCOCC3)n2)cc1,-14
17,CCOc1ccc2[nH]c(C)c(CN3CCN(CC)CC3)c(=O)c2c1,-0.978
18,Cc1noc(C)c1COC(=O)CCCOc1ccc(Cl)cc1Cl,5.21
19,NC(=S)N/N=C/c1ccc(C(F)(F)F)cc1,11
20,O=C(N/N=C/c1cc2c(cc1Cl)OCO2)c1ccncc1,24.4
21,CCN(CC)CC#CCC1(O)c2ccccc2-c2ccccc21.Cl,-9.76
22,Cc1ccc(NC(=O)CSCC(=O)N=c2sccn2C)cc1,7.83
